From patent publication US9126931B2 (priority 2009, dated 2015)

Tested on: Human lymphoma cell line KARPAS-299
Test: cells
Conditions: KARPAS-299, 96 h, read-out: Inhibitory activity on Karpas-299 cell growth IC50

Row | SMILES | IC50
1 | CC1(C)c2cc(N3CCC(N4CCCC4)CC3)c(C3=CCN(S(C)(=O)=O)CC3)cc2C(=O)c2c1[nH]c1cc(C#N)ccc21 [Compound F6-2, 9-(1-Methanesulfonyl-1,2,3,6-tetrahydro-pyridin-4-yl)-6,6-dimethyl-11-oxo-8-(4-pyrrolidin-1-yl-piperidin-1-yl)-6,11-dihydro-5H-benzo[b]carbazole-3-carbonitrile] | 0.0295 µM
2 | CC1(C)c2cc(N3CCNCC3)c(C3CC3)cc2C(=O)c2c1[nH]c1cc(C#N)ccc21 [Compound F5-15-2, 9-Cyclopropyl-6,6-dimethyl-11-oxo-8-piperazin-1-yl-6,11-dihydro-5H-benzo[b]carbazole-3-carbonitrile] | 0.0098 µM
3 | CC1(C)c2cc(N3CCN(CC4CC4)CC3)c(Br)cc2C(=O)c2c1[nH]c1cc(C#N)ccc21 [Compound F4-8, 9-Bromo-8-(4-cyclopropylmethyl-piperazin-1-yl)-6,6-dimethyl-11-oxo-6,11-dihydro-5H-benzo[b]carbazole-3-carbonitrile] | 0.0221 µM
4 | CC1(C)c2cc(OCCS(C)(=O)=O)ccc2C(=O)c2c1[nH]c1cc(C#N)ccc21 [Compound A8-3, 8-(2-Methanesulfonyl-ethoxy)-6,6-dimethyl-11-oxo-6,11-dihydro-5H-benzo[b]carbazole-3-carbonitrile] | 0.0866 µM
5 | CNS(=O)(=O)N1CCC(c2ccc3c(c2)C(C)(C)c2[nH]c4cc(C#N)ccc4c2C3=O)CC1 [Compound B4-4, 4-(3-Cyano-6,6-dimethyl-11-oxo-6,11-dihydro-5H-benzo[b]carbazol-8-yl)-piperidine-1-sulfonic acid methylamide] | 0.0812 µM
6 | CCN(CC)CCSc1cc2c(cc1OC)C(C)(C)c1[nH]c3cc(C#N)ccc3c1C2=O [Compound E4-4, 9-(2-Diethylamino-ethylsulfanyl)-8-methoxy-6,6-dimethyl-11-oxo-6,11-dihydro-5H-benzo[b]carbazole-3-carbonitrile] | 0.109 µM
7 | CC1(C)c2cc(N3CCN(C4COC4)CC3)c(CCCN3CCOCC3)cc2C(=O)c2c1[nH]c1cc(C#N)ccc21 [Compound F6-11, 6,6-Dimethyl-9-(3-morpholin-4-yl-propyl)-8-(4-oxetan-3-yl-piperazin-1-yl)-11-oxo-6,11-dihydro-5H-benzo[b]carbazole-3-carbonitrile] | 0.0776 µM
8 | CC1(C)c2cc(OC[C@H](O)CO)ccc2C(=O)c2c1[nH]c1c(C(F)(F)F)c(C#N)ccc21 [Compound U8-5-2, 8-((R)-2,3-Dihydroxy-propoxy)-6,6-dimethyl-11-oxo-4-trifluoromethyl-6,11-dihydro-5H-benzo[b]carbazole-3-carbonitrile] | 0.357 µM
9 | CC1(C)c2cc(OC[C@@H](O)[C@H](O)CO)ccc2C(=O)c2c1oc1cc(OC(=O)NC3CCCCC3)ccc21 [GT13-25, Cyclohexyl-carbamic acid 6,6-dimethyl-11-oxo-8-((2R,3R)-2,3,4-trihydroxy-butoxy)-6,11-dihydro-benzo[b]naphtho[2,3-d]furan-3-yl ester] | 5.51 µM
10 | COc1cc2c(cc1S(=O)(=O)C(C)C)C(=O)c1c([nH]c3cc(C#N)ccc13)C2(C)C [Compound E5-3, 8-Methoxy-6,6-dimethyl-11-oxo-9-(propane-2-sulfonyl)-6,11-dihydro-5H-benzo[b]carbazole-3-carbonitrile] | 0.19 µM
11 | CC(C)S(=O)(=O)N1CCC(COc2ccc3c(c2)C(C)(C)c2[nH]c4cc(Br)ccc4c2C3=O)CC1 [Compound T14-6, 3-Bromo-6,6-dimethyl-8-[1-(propane-2-sulfonyl)-piperidin-4-ylmethoxy]-5,6-dihydro-benzo[b]carbazol-11-one] | 1.94 µM
12 | CC1(C)c2cc(N3CCOCC3)c(C#CCN3CCN(C4CC4)CC3)cc2C(=O)c2c1[nH]c1cc(C#N)ccc21 [Compound F5-10, 9-[3-(4-Cyclopropyl-piperazin-1-yl)-prop-1-ynyl]-6,6-dimethyl-8-morpholin-4-yl-11-oxo-6,11-dihydro-5H-benzo[b]carbazole-3-carbonitrile] | 0.0135 µM
13 | CC#Cc1cc2c(cc1N1CCN(C3COC3)CC1)C(C)(C)c1[nH]c3cc(C#N)ccc3c1C2=O [Compound F5-22, 6,6-Dimethyl-8-(4-oxetan-3-yl-piperazin-1-yl)-11-oxo-9-prop-1-ynyl-6,11-dihydro-5H-benzo[b]carbazole-3-carbonitrile] | 0.0066 µM
14 | CC1(C)c2cc(OC[C@@H](O)[C@H](O)CO)ccc2C(=O)c2c1oc1cc(OC(=O)Nc3ccccc3)ccc21 [GT13-24, Phenyl-carbamic acid 6,6-dimethyl-11-oxo-8-((2R,3R)-2,3,4-trihydroxy-butoxy)-6,11-dihydro-benzo[b]naphtho[2,3-d]furan-3-yl ester] | 3.95 µM
15 | COc1ccc2c(c1)C(C)(C)c1[nH]c3c(OC[C@@H](O)CO)c(C#N)ccc3c1C2=O [Compound U10-2, 4-((S)-2,3-Dihydroxy-propoxy)-8-methoxy-6,6-dimethyl-11-oxo-6,11-dihydro-5H-benzo[b]carbazole-3-carbonitrile] | 0.94 µM
16 | CN(C)CCCOc1cccc2c1C(C)(C)c1[nH]c3cc(C#N)ccc3c1C2=O [Compound W4-4, 7-(3-Dimethylamino-propoxy)-6,6-dimethyl-11-oxo-6,11-dihydro-5H-benzo[b]carbazole-3-carbonitrile] | 0.116 µM

Row | SMILES | IC50
17 | CCc1cc2c(cc1N1CC(N3CCCCC3)C1)C(C)(C)c1[nH]c3cc(C#N)ccc3c1C2=O [PR9-11, 9-Ethyl-6,6-dimethyl-11-oxo-8-(3-piperidin-1-yl-azetidin-1-yl)-6,11-dihydro-5H-benzo[b]carbazole-3-carbonitrile] | 0.036 µM
18 | COCCN1CCC(Oc2ccc3c(c2)C(C)(C)c2[nH]c4cc(C#N)ccc4c2C3=O)CC1 [Compound A9-5, 8-[1-(2-Methoxy-ethyl)-piperidin-4-yloxy]-6,6-dimethyl-11-oxo-6,11-dihydro-5H-benzo[b]carbazole-3-carbonitrile] | 0.0523 µM
19 | CCc1cc2c(cc1N1CCN(C(=O)C(C)C)CC1)C(C)(C)c1[nH]c3cc(C#N)ccc3c1C2=O [Compound E9-5, 9-Ethyl-8-(4-isobutyryl-piperazin-1-yl)-6,6-dimethyl-11-oxo-6,11-dihydro-5H-benzo[b]carbazole-3-carbonitrile] | 0.041 µM
20 | C#Cc1cc2c(cc1N1CCN(C3COC3)CC1)C(C)(C)c1[nH]c3cc(C#N)ccc3c1C2=O [Compound F5-16, 9-Ethynyl-6,6-dimethyl-8-(4-oxetan-3-yl-piperazin-1-yl)-11-oxo-6,11-dihydro-5H-benzo[b]carbazole-3-carbonitrile] | 0.0042 µM
21 | CCc1cc2c(cc1N1CCC(NC3CC3)CC1)C(C)(C)c1[nH]c3cc(C#N)ccc3c1C2=O [PR11-17, 8-(4-Cyclopropylamino-piperidine-1-yl)-9-ethyl-6,6-dimethyl-11-oxo-6,11-dihydro-5H-benzo[b]carbazole-3-carbonitrile] | 0.00577 µM
22 | C#Cc1cc2c(cc1N1CCN(S(C)(=O)=O)CC1)C(C)(C)c1[nH]c3cc(C#N)ccc3c1C2=O [Compound F5-1, 9-Ethynyl-8-(4-methanesulfonyl-piperazin-1-yl)-6,6-dimethyl-11-oxo-6,11-dihydro-5H-benzo[b]carbazole-3-carbonitrile] | 0.0091 µM
23 | CC1(C)c2ccc(OC3CCN(C4COC4)CC3)cc2C(=O)c2c1[nH]c1cc(C#N)ccc21 [Compound J7-2-3, 6,6-Dimethyl-9-(1-oxetan-3-yl-piperidin-4-yloxy)-11-oxo-6,11-dihydro-5H-benzo[b]carbazole-3-carbonitrile] | 0.0295 µM
24 | CCc1cc2c(cc1N1CCC(C#N)(N3CCOCC3)CC1)C(C)(C)c1[nH]c3cc(C#N)ccc3c1C2=O [PR11-21, 8-(4-Cyano-4-morpholine-4-yl-piperidine-1-yl)-9-ethyl-6,6-dimethyl-11-oxo-6,11-dihydro-5H-benzo[b]carbazole-3-carbonitrile] | 0.0644 µM
25 | CN(CCO)C(=O)c1ccc2c(c1)C(C)(C)c1[nH]c3cc(C#N)ccc3c1C2=O [Compound B3-26, 3-Cyano-6,6-dimethyl-11-oxo-6,11-dihydro-5H-benzo[b]carbazol-8-carboxylic acid (2-hydroxy-ethyl)-methyl-amide] | 1.36 µM
26 | O=C1c2ccc(OC[C@@H](O)[C@H](O)CO)cc2C2(CCCCC2)c2oc3ccccc3c21 [GT18-4, 8-((2R,3R)-2,3,4-trihydroxybutoxy)-11H-spiro[benzo[b]naphtho[2,3-d]furan-6,1′-cyclohexane]-11-one] | 2.01 µM
27 | CN1CCC(Oc2cc3c(cc2NS(=O)(=O)N(C)C)C(=O)c2c([nH]c4cc(C#N)ccc24)C3(C)C)CC1 [Compound D3-2, 3-Cyano-6,6-dimethyl-11-oxo-8-(1-methylpiperidin-4-yloxy)-6,11-dihydro-5H-benzo[b]carbazole-9-sulfonic acid dimethylamide] | 0.97 µM
28 | CC1(C)c2[nH]c3cc(C#N)ccc3c2C(=O)c2cnc(N3CCC(N4CCOCC4)CC3)c(F)c21 [AZ7-24, 4-Fluoro-5,5-dimethyl-3-(4-morpholin-4-yl-piperidine-1-yl)-11-oxo-6,11-dihydro-5H-pyrido[4,3-b]carbazole-8-carbonitrile] | 0.054 µM
29 | CC(C)N1CCC(Cc2ccc3c(c2)C(C)(C)c2[nH]c4cc(C#N)ccc4c2C3=O)CC1 [Compound B2-27, 8-(1-Isopropyl-piperidin-4-ylmethyl)-6,6-dimethyl-11-oxo-6,11-dihydro-5H-benzo[b]carbazole-3-carbonitrile] | 0.0138 µM
30 | COc1ccc(COc2ccc3c(c2)C(=O)c2c([nH]c4cc(Br)ccc24)C3(C)C)cc1 [JJ10-3, 3-Bromo-9-(4-methoxy-benzyloxy)-6,6-dimethyl-5,6-dihydro-benzo[b]carbazol-11-one] | 6.06 µM
31 | CC#Cc1cc2c(cc1N1CCC(N3CCOCC3)CC1)C1(CCOCC1)c1[nH]c3cc(C#N)ccc3c1C2=O [Compound O9-7, 8-(4-Morpholinopiperidin-1-yl)-11-oxo-9-(prop-1-ynyl)-2′,3′,5,5′,6′,11-hexahydrospiro[benzo[b]carbazole-6,4′-pyran]-3-carbonitrile] | 0.0044 µM
32 | CCc1cc2c(cc1N1CCC(O)(C#N)CC1)C(C)(C)c1[nH]c3cc(C#N)ccc3c1C2=O [PR11-20, 8-(4-Cyano-4-hydroxy-piperidine-1-yl)-9-ethyl-6,6-dimethyl-11-oxo-6,11-dihydro-5H-benzo[b]carbazole-3-carbonitrile] | 0.0203 µM
